Source: a collection of fitness landscapes (doi:10.1016/j.celrep.2020.107928)
Over roughly 81,000 sequences, “one-hybrid fitness for binding NBS DNA” has its median near -0.1; the highest 2% begin near 0.36. The list shows a part of the results.

B1: Caulobacter ParB omega fusion; a variant is named by its letters at X, in order, B8GW30 (parent)
chain: MESVVVGEPGMSEGRRGLGRGLSALLGEVDAAPAQAPGEQLGGSREAPIEILQRNPDQPRRTFREEDLEDLSNSIREKGVLQPILVRPSPDTAGEYQIVAGERAWRAAQRAGLKTVPIMVRELDDLAVLEIGIIENVQRADLNVLEEALSYKVLMEKFERTQENIAQTIGKSXSHVANXMRLLXLPDEVQSYLVSGELTAXHARAIAAAADPVALAKQIIEGGLSVRETEALARKAPNLSAGKSKGGRPPRVKDTDTQALESDLSSVLGLDVSIDHRGSTGTLTITYATLEQLDDLCNRLTRGI

Variants of: B1
Assay: one-hybrid fitness for binding NBS DNA (the Noc-binding site; scaled: cognate 1, non-cognate 0); higher = stronger binding
Settings: with NBS DNA site
Procedure, shortened: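 Fitness is the rescaled log change in variant-to-wild-type read ratio, measured by Illumina sequencing of plasmids before and after bacterial one-hybrid selection. The scale puts cognate at 1 and non-cognate at 0. Selection of Caulobacter ParB libraries, four specificity codons randomised, took place in E. coli USO with a HIS3 reporter, site 19 bp from the promoter, over 48 hours at 37°C on M9-minus-histidine with 0.1 mM IPTG and 5 mM 3-AT.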

| Variant | one-hybrid fitness for binding NBS DNA |
| --- | --- |
| SISR | ≤ 0.2 |
| RLIK | ≤ 0.2 |
| VSIE | ≤ 0.2 |
| DYNA | ≤ 0.2 |
| NTNT | ≤ 0.2 |
| TRTF | ≤ 0.2 |
| RFCY | ≤ 0.2 |
| MQLR | ≤ 0.2 |
| SYRF | ≤ 0.2 |
| HQTC | ≤ 0.2 |
| EKLC | ≤ 0.2 |
| MSPS | ≤ 0.2 |
| YTLR | ≤ 0.2 |
| AQSF | ≤ 0.2 |
| LYCN | ≤ 0.2 |
| VRTV | ≤ 0.2 |
| MPMS | ≤ 0.2 |
| LRPV | ≤ 0.2 |
| DLKG | ≤ 0.2 |
| DLDG | ≤ 0.2 |
| NGAM | ≤ 0.2 |
| PLCG | ≤ 0.2 |
| EESF | ≤ 0.2 |
| PWHR | ≤ 0.2 |
| QADR | 0.314 |
| VSFT | ≤ 0.2 |

| Variant | one-hybrid fitness for binding NBS DNA |
| --- | --- |
| QQNY | 0.306 |
| SILF | ≤ 0.2 |
| CMQA | ≤ 0.2 |
| KTTF | ≤ 0.2 |
| RFGC | ≤ 0.2 |
| KFTN | ≤ 0.2 |
| TQRF | ≤ 0.2 |
| RGNF | ≤ 0.2 |
| VYKY | ≤ 0.2 |
| KIQS | ≤ 0.2 |
| LRFW | ≤ 0.2 |
| IRFT | ≤ 0.2 |
| HVMG | ≤ 0.2 |
| AHLG | ≤ 0.2 |
| RKQV | ≤ 0.2 |
| LRRY | ≤ 0.2 |
| PFHR | ≤ 0.2 |
| FLST | ≤ 0.2 |
| MTLG | ≤ 0.2 |
| HVVL | ≤ 0.2 |
| QTMC | ≤ 0.2 |
| NATI | ≤ 0.2 |
| HNQW | ≤ 0.2 |
| TPFA | ≤ 0.2 |
| RRCK | 0.254 |
| FGVS | ≤ 0.2 |

| Variant | one-hybrid fitness for binding NBS DNA |
| --- | --- |
| KYEG | ≤ 0.2 |
| SQAG | ≤ 0.2 |
| HDTE | ≤ 0.2 |
| TTRN | ≤ 0.2 |
| NGTS | ≤ 0.2 |
| RFVT | ≤ 0.2 |
| SSQF | ≤ 0.2 |
| RGRT | ≤ 0.2 |
| SEIS | ≤ 0.2 |
| HLAG | ≤ 0.2 |
| DLVC | ≤ 0.2 |
| NRAT | ≤ 0.2 |
| SVDL | ≤ 0.2 |
| VVPK | ≤ 0.2 |
| LSMF | ≤ 0.2 |
| NKVD | ≤ 0.2 |
| LAMG | ≤ 0.2 |
| ESFC | ≤ 0.2 |
| CWRY | ≤ 0.2 |
| AKRG | ≤ 0.2 |
| PNYY | ≤ 0.2 |
| KMVN | ≤ 0.2 |
| NHVG | ≤ 0.2 |
| EKAT | ≤ 0.2 |
